Reference: paper PMC4336329 (PLoS ONE, 2015)
In all, about 310,000 compounds went through this assay and about 14,000 (4.5%) showed an effect of 50% or more. The effect is printed as a negative number. The list shows a part of the results.

Each compound was assayed against human ether-à-go-go-related gene (hERG) potassium channel (human, UniProt Q12809) (assay: primary screen, population patch clamp on CHO cells stably expressing hERG).
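Note: peak tail current of the secondary pulse compared with the same well before compound.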

Chain of human ether-à-go-go-related gene (hERG) potassium channel (Q12809 whole entry, looked up): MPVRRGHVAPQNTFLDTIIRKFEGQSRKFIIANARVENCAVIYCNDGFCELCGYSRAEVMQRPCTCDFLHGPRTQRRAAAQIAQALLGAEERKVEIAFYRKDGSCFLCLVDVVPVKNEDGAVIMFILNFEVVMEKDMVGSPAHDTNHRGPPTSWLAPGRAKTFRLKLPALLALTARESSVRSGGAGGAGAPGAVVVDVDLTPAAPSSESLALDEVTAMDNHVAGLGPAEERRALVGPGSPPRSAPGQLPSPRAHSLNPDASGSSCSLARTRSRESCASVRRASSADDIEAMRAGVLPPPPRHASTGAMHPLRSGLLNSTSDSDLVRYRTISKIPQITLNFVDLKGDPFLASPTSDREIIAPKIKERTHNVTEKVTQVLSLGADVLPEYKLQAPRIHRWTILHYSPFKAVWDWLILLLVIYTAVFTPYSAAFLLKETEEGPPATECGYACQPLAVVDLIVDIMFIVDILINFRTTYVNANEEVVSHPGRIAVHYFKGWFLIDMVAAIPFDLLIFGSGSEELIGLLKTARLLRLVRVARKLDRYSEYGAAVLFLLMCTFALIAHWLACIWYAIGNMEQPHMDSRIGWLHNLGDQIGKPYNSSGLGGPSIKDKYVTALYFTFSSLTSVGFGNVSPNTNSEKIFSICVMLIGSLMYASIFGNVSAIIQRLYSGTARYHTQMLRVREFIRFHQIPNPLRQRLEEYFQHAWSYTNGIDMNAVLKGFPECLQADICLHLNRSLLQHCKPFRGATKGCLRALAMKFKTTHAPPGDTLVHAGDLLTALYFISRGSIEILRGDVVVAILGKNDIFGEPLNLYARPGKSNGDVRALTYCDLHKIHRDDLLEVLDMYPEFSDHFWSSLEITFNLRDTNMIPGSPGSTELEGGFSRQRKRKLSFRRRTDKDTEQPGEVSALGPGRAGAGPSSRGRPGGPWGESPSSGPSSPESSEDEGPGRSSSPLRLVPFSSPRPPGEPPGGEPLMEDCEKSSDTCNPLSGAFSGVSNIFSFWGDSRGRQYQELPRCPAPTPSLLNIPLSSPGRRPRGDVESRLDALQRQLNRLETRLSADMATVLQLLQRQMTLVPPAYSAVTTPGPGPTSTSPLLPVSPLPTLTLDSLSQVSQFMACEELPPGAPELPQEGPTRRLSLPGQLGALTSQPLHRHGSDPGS

SMILES | hERG current change (%, negative = inhibition) at 10uM [%]
CCCCN1C[C@H](Cc2ccccc2)[C@@H](CC(=O)Nc2ccccc2)C1=O | -25.4
COC(=O)C1=C(C)NC(C)=C(C(=O)OC)C1C(=O)OCCN1C(=O)c2ccccc2C1=O | -17.3
COc1cc2c(cc1OC)CN(C(=O)c1nn(Cc3ccccc3)c(=O)c3ccccc13)CC2 | -44.7
Nc1ccc(C23CC4CC(CC(CO)(C4)C2)C3)cc1 | 15.7
CC(=O)Nc1nc2cc(N)ccc2s1 | 1.94
Cc1ccc(C(=O)OCC(=O)N2C(C)CCCC2C)cc1S(=O)(=O)N1CCCCC1 (stereo not drawn) | -27
CCOc1ccc(C(=O)NNC(=O)C2CC(=O)N(c3ccc(C)cc3)C2)cc1 (stereo not drawn) | -2.38
Cc1ccc(N2Cc3ccccc3C2=O)cc1 | 6.49
O=S(=O)(Cc1cnc(Cl)s1)c1ccccc1 | 6.7
Cc1cc(Br)ccc1NS(=O)(=O)c1c(C)[nH]c(=O)[nH]c1=O | 11.6
O=C(COc1ccccc1)N1CCNC1=O | -0.563
CCn1c(Oc2ccccc2)nc2c1c(=O)n(C)c(=O)n2C | 2.72
COc1ccc(C(=O)NNC(=O)Cc2nc3nc(C)cc(C)n3n2)cc1 | 6.94
COc1ccc(-c2c(C)n([O-])c3c([n+]2=O)CCC3)cc1OC | 2.8
Cc1ccc(-c2nn(-c3ccccn3)c(=O)c3ccccc23)cc1C | -30.3
O=C(c1ccc([N+](=O)[O-])cc1)N1CCN=C1SCc1ccccc1 | -72.2
Clc1ccc(OCCn2ccnc2)c(Br)c1 | -5.07
Cc1cc(C)nc(NC(=O)c2cccc([N+](=O)[O-])c2C)n1 | -8.72
Cc1ccc(-c2csc(NC(=S)NC(=O)c3cc4ccccc4o3)n2)cc1 | 7.09
COc1ccc(S(=O)(=O)N2CCOCC2)cc1C(=O)Nc1nc2ccccc2s1 | -5.62
COc1ccc(Cl)cc1NC(=O)N1CCN(c2ccccc2OC)CC1 | -13.4
CC(C)(C)CC(C)(C)c1ccc(OCC(=O)N/N=C/c2ccc(S(=O)(=O)[O-])o2)cc1 | -2.86
COc1ccc(C(c2nnnn2Cc2cccs2)N2CCN(c3ccc(F)cc3)CC2)cc1OC (stereo not drawn) | -69.4

SMILES | hERG current change (%, negative = inhibition) at 10uM [%]
CC(C)c1ccc(NC(=O)CC2Oc3ccccc3NC2=O)cc1 (stereo not drawn) | 7.14
CN(C)c1cc(-c2ccc(F)cc2)oc(=O)c1Cl | -16.8
COc1cc(/C=N/N2CCN(c3ccccc3)CC2)cc(OC)c1OC(C)=O | -39.4
CC1CCCCN1S(=O)(=O)c1cccc(S(=O)(=O)N2CCOCC2)c1 (stereo not drawn) | -18.2
COc1ccccc1CNC(=O)COc1ccc2c(c1)CCC2 | -1.2
Cc1ccc(SCC(=O)OCC(=O)NCc2ccco2)cc1 | -2.28
Cc1n[nH]c(C)c1CCCCOc1ccccc1 | -21.8
COc1cc2ncnc(NCc3ccccc3Cl)c2cc1OC | 10.9
c1ccc2c(c1)[nH]c1c(N3CCC4(CC3)OCCO4)ncnc12 | -14.3
COc1cc(OC)nc(NC(=O)COC(=O)c2cccc(Cl)c2)n1 | 21.2
CCS(=O)(=O)N1CCC(NC(C)=O)(c2ccccc2)CC1 | 4.18
CC(C)Sc1nnc([C@H](Cc2ccccc2)NC(=O)OC(C)(C)C)o1 | 3.9
Cn1c(-c2cnn(-c3ccccc3)c2-n2cccc2)n[nH]c1=S | 9.86
CC1CC(C)CN(CCCNC(=O)c2nn(C)c3c2CS(=O)(=O)c2ccccc2-3)C1 (stereo not drawn) | -64.2
CCOC(=O)c1sc(C)c2c(=O)n(CC(=O)c3ccc(Br)cc3)nnc12 | -6.99
O=C(Nc1ccncc1)c1cc2ccccc2cc1O | 5.89
COc1ccc(S(=O)(=O)N2CCN(C(=O)Cc3cccs3)CC2)cc1 | -1.02
CCN(CC)CCCNC(=O)C1CCCN(c2nnc(N3CCCC3=O)s2)C1 (stereo not drawn) | -5.62
COc1ccc(C(=O)C2CCCN(C3Cc4ccccc4C3)C2)c(OC)c1 (stereo not drawn) | -76.5
COc1ccc(NC(=S)N2CCN(c3ncccn3)CC2)c(OC)c1 | 7.96
O=C1CCc2cc(S(=O)(=O)NCCC(=O)NC3CCN(Cc4ccccc4)CC3)ccc2N1 | 3.92
Cc1sc(NC(=O)c2ccc3ncsc3c2)c(C(N)=O)c1C | 17.7
C/C(CC(=O)Nc1ccccc1Br)=N\NC(=O)C(=O)N1CCCC1 | -1.55

SMILES | hERG current change (%, negative = inhibition) at 10uM [%]
C/C(=N\NC(=O)Cc1ccccc1)c1cccnc1 | 15.3
OC1(c2ccc(Br)cc2)CN(c2ccccc2)C2=[N+]1CCS2.[Br-] (stereo not drawn) | -19.5
CCOc1ccc(S(=O)(=O)N2CCN(C(=S)NCc3ccccc3)CC2)cc1 | -18.2
Cc1cc(NC(=O)CSc2ccc3nnc(-c4ccccc4)n3n2)no1 | -22.5
CCN(CC)c1ccc(NC(=O)c2ccc3c(c2)OCO3)cc1 | 9.22
COc1ccc(N/C=C/C(=O)c2ccc(Cl)cc2)cc1 | -13.7
CCN(CC)CCNC(=O)c1ccc(Sc2ccc(Cl)cc2)c(NC(C)=O)c1 | -61.7
CCc1cccc(C)c1NC(=O)c1cc(=O)[nH]c2ccc(S(=O)(=O)N3CCOCC3)cc12 | 0.437
CCn1c(CNc2ccccc2Cl)nnc1SCC(=O)NCc1ccccc1 | -27
O=S(=O)(NCC1CCCO1)c1ccc(-c2ccc(Cl)cc2)cc1 (stereo not drawn) | 2.48
C#CCOc1ccc2c(c1)c(C(C)=O)c(C)n2Cc1ccccc1 | 1.69
C=C1CCN(C(CC(C)C)C(=O)OC)S(=O)(=O)c2ccccc21 (stereo not drawn) | -7.08
CC(=O)C1=C(c2ccccc2)OC(N)=C(C#N)C1c1ccccc1F (stereo not drawn) | -2.9
Cc1noc(C)c1COc1cccc(C(=O)Nc2ccccc2N2CCOCC2)c1 | -2.8
O=C(COC(=O)c1cnccn1)Nc1ncc(Cl)cc1Cl | 7.93
Cc1oc(/C=N/NC(=O)CN(c2ccccc2Cl)S(C)(=O)=O)cc1Br | -13.8
C(/CCc1ccccc1)=N\Nc1nc2ccccc2[nH]1 | -26.6
CC(C)COc1ccc(C(=O)Nc2ccccc2[N+](=O)[O-])cc1 | 15.2
COc1cc(S(=O)(=O)N(Cc2ccccn2)Cc2ccco2)ccc1-n1cnnn1 | -32.4
CCOC(=O)C1C(=O)OC(C)(C)C1C(C)C(=O)c1ccc(OC)cc1 (stereo not drawn) | -4.81
O=S(=O)(Nc1cccnc1)c1cccs1 | 18.1
CCc1ccc(C(=O)N2CCCC2)s1 | 14.2
Cc1ccc(OCC(=O)NCCCNC(=O)c2ccccn2)cc1 | 2.23

SMILES | hERG current change (%, negative = inhibition) at 10uM [%]
CCOC(=O)Cn1c(C)cc(=O)c2cccc(C)c21 | -9.34
O=C(NC(=S)N1CCN(c2nc(-c3ccccc3)cs2)CC1)c1cccnc1 | -1.93
O=C1CS/C(=N/N=C/c2ccccc2OS(=O)(=O)c2ccccc2)N1 | -4.05
CCN(CC(=O)NCc1cccs1)C(=O)c1ccccc1Cl | -0.291
CCOC(=O)C1CCN(c2ncnc3c2nnn3Cc2ccccc2Cl)CC1 | -29.8
CCCN1CCC(CCOc2ccccc2)(C(=O)OCC)CC1 | -58.5
CC1CCCCN1C(=O)c1ccc(N2CC3CC(C2)c2cccc(=O)n2C3)c([N+](=O)[O-])c1 (stereo not drawn) | -15.9
COC(=O)CC(C(=O)Nc1cc(C(=O)OC)cc(C(=O)OC)c1)N1CCN(C)CC1 (stereo not drawn) | 11.5
COc1ccc(S(=O)(=O)N(C)C(C)CCc2ccco2)cc1 (stereo not drawn) | -12.3
COc1ccc(C(O)Cn2c(=N)n(CCCN(C)C)c3ccccc32)cc1.Cl (stereo not drawn) | -13
O=c1c2cn[nH]c2[nH]c(=S)n1-c1ccccc1 | 20.1
O=C(NCCCNc1ccc(C(F)(F)F)cc1[N+](=O)[O-])c1ccc(F)cc1 | -19.9
CC(C)CNC(=O)CN1C(=O)NC2(CCCc3ccccc32)C1=O (stereo not drawn) | 15.3
O=C1CSC(=Nc2cccc(Cl)c2Cl)N1Cc1cccnc1 | -42.8
CCc1noc(C)c1C(=O)NNC(=O)COc1ccc(C)cc1 | 11
COCCN(C(=O)CCC(=O)Nc1ccccn1)C(C(=O)NC(C)(C)C)c1ccc(OC)cc1 (stereo not drawn) | 11.3
O=C(Nc1ccc2c(c1)OCCO2)c1cccc2nc3ccccc3nc12 | 19.1
COc1cccc(OC)c1C(=O)Nc1cc(Cl)ccc1N1CCOCC1 | -36.3
O=C1C=C(c2cc3ccccc3o2)C[C@@H](c2ccc(F)cc2)C1 | 2.02
CC(=O)N1CSCC1C(=O)NNS(=O)(=O)c1cccc(C(F)(F)F)c1 (stereo not drawn) | 8.58
C=CCNC(=O)c1c(CSc2ccc(Cl)cc2)noc1C(=O)NCCC | -10.8
